Source: the supplement of paper PMC4967469
Lines with a small IC50 respond at low doses; fits outside the tested doses are given as limits. AUC sums up the same curve from the lowest dose to the 256-fold higher top dose; the more sensitive the line, the further below 1. For part of these data: Any top dose called inferred was derived from the fitted curves, not read from the paper.

Legend:
Assay in all cases: Viability of human cancer cell lines after 72 h of drug (GDSC screen)
Trametinib = compound: CC(=O)Nc1cccc(-n2c(=O)n(C3CC3)c(=O)c3c(Nc4ccc(I)cc4F)n(C)c(=O)c(C)c32)c1 [Trametinib]; conditions: top dose 1 µM
Procedure: (§1)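 Human cancer cell lines in 384-well plates, medium with 10% serum, drug for 72 h over a 256-fold dose range (nine 2-fold or five 4-fold steps up to the top dose). Adherent lines were fixed and stained with the nucleic acid dye Syto60, suspension lines read with resazurin; signal relative to control wells, capped at 0 and 100%. One two-parameter sigmoid per drug and line, fitted in a mixed model over all curves with the slope shared within a line.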

HG-6-64-1 = compound: CCN1CCN(Cc2ccc(NC(=O)c3ccc(C)c(/C=C/c4cnc5[nH]ccc5c4OC)c3)cc2C(F)(F)F)CC1 [HG-6-64-1]; conditions: top dose 5.12 µM; top dose inferred
Procedure: as §1

PF-4708671 = compound: CCc1cncnc1N1CCN(Cc2nc3ccc(C(F)(F)F)cc3[nH]2)CC1 [PF-4708671]; conditions: top dose 10 µM; top dose inferred
Procedure: as §1

AV-951 = compound: COc1cc2nccc(Oc3ccc(NC(=O)Nc4cc(C)on4)c(Cl)c3)c2cc1OC [AV-951]; conditions: top dose 0.128 µM; top dose inferred
Procedure: as §1

I-BET-762 = compound: CCNC(=O)C[C@@H]1N=C(c2ccc(Cl)cc2)c2cc(OC)ccc2-n2c(C)nnc21 [I-BET-762]; conditions: top dose 20 µM; top dose inferred
Procedure: as §1

KIN001-244 = compound: O=C(NC(COc1ccc2[nH]c(=O)[nH]c2c1)c1ccccc1)c1cccn(Cc2ccc(F)c(F)c2)c1=O [KIN001-244]; conditions: top dose 20 µM; top dose inferred
Procedure: as §1

| Cell Line | AUC (Trametinib) | IC50 (Trametinib) | AUC (HG-6-64-1) | IC50 (HG-6-64-1) | AUC (PF-4708671) | IC50 (PF-4708671) | AUC (AV-951) | IC50 (AV-951) | AUC (I-BET-762) | IC50 (I-BET-762) | AUC (KIN001-244) | IC50 (KIN001-244) |
| --- | --- | --- | --- | --- | --- | --- | --- | --- | --- | --- | --- | --- |
| JHH-4 (liver, adherent) | 0.644 | 156 nM | 0.58 | 529 nM | 0.883 | > 10 µM | 0.965 | > 128 nM | 0.862 | 17.1 µM | 0.781 | 8.24 µM |
| JHH-6 (liver, adherent) | 0.937 | > 1000 nM | 0.826 | 3160 nM | 0.92 | > 10 µM | 0.981 | > 128 nM | 0.958 | > 20 µM | 0.88 | > 20 µM |
| JHH-7 (liver, adherent) | 0.344 | 23.8 nM | 0.653 | 827 nM | 0.929 | > 10 µM | 0.981 | > 128 nM | 0.988 | > 20 µM | 0.899 | > 20 µM |
| JHU-022 (head and neck, adherent) | 0.459 | 46.8 nM | 0.793 | 3070 nM | 0.961 | > 10 µM | 0.977 | > 128 nM | 0.982 | > 20 µM | 0.954 | > 20 µM |
| JIMT-1 (breast, adherent) | 0.676 | 202 nM | 0.578 | 531 nM | 0.967 | > 10 µM | 0.985 | > 128 nM | 0.982 | > 20 µM | 0.908 | > 20 µM |
| JJN-3 (haematopoietic neoplasm, suspension) | 0.963 | > 1000 nM | 0.886 | 3880 nM | 0.97 | > 10 µM | 0.993 | > 128 nM | 0.702 | 4.09 µM | 0.867 | 12.8 µM |
| K2 (melanoma, adherent) | 0.162 | 3.98 nM | 0.752 | 2150 nM | 0.982 | > 10 µM | 0.978 | > 128 nM | 0.969 | > 20 µM | 0.918 | > 20 µM |
| KARPAS-620 (haematopoietic neoplasm, suspension) | 0.274 | 16 nM | 0.729 | 1280 nM | 0.978 | > 10 µM | 0.984 | > 128 nM | 0.435 | 0.855 µM | 0.715 | 4.55 µM |
| KLE (endometrium, adherent) | 0.938 | > 1000 nM | 0.743 | 2410 nM | 0.91 | > 10 µM | 0.967 | > 128 nM | 0.841 | > 20 µM | 0.794 | 15.9 µM |
| KMH-2 (thyroid, adherent) | 0.068 | < 3.91 nM | 0.821 | 2550 nM | 0.973 | > 10 µM | 0.989 | > 128 nM | 0.99 | > 20 µM | 0.953 | > 20 µM |
| KMRC-20 (kidney, adherent) | 0.879 | > 1000 nM | 0.793 | 2390 nM | 0.982 | > 10 µM | 0.989 | > 128 nM | 0.989 | > 20 µM | 0.981 | > 20 µM |
| KON (head and neck, adherent) | 0.551 | 85.6 nM | 0.524 | 372 nM | 0.982 | > 10 µM | 0.984 | > 128 nM | 0.987 | > 20 µM | 0.98 | > 20 µM |
| KOSC-2 (head and neck, adherent) | 0.578 | 103 nM | 0.667 | 952 nM | 0.943 | > 10 µM | 0.98 | > 128 nM | 0.94 | > 20 µM | 0.963 | > 20 µM |
| KP-2 (pancreas, adherent) | 0.257 | 11.8 nM | 0.876 | > 5120 nM | 0.981 | > 10 µM | 0.985 | > 128 nM | 0.97 | > 20 µM | 0.908 | > 20 µM |
| KP-3 (pancreas, adherent) | 0.807 | 637 nM | 0.718 | 1510 nM | 0.974 | > 10 µM | 0.976 | > 128 nM | 0.936 | > 20 µM | 0.901 | > 20 µM |
| KP-4 (pancreas, adherent) | 0.814 | 515 nM | 0.859 | 3960 nM | 0.946 | > 10 µM | 0.915 | > 128 nM | 0.988 | > 20 µM | 0.96 | > 20 µM |
| KU-19-19 (bladder, adherent) | 0.064 | < 3.91 nM | 0.949 | > 5120 nM | 0.921 | > 10 µM | 0.987 | > 128 nM | 0.987 | > 20 µM | 0.987 | > 20 µM |
| KYSE-50 (oesophagus, adherent) | 0.916 | > 1000 nM | 0.502 | 324 nM | 0.828 | 5.45 µM | 0.986 | > 128 nM | 0.914 | > 20 µM | 0.913 | > 20 µM |
| KYSE-70 (oesophagus, adherent) | 0.895 | > 1000 nM | 0.615 | 683 nM | 0.985 | > 10 µM | 0.986 | > 128 nM | 0.953 | > 20 µM | 0.92 | > 20 µM |
| KYSE-150 (oesophagus, adherent) | 0.91 | > 1000 nM | 0.604 | 609 nM | 0.945 | > 10 µM | 0.989 | > 128 nM | 0.957 | > 20 µM | 0.916 | > 20 µM |
| KYSE-180 (oesophagus, adherent) | 0.923 | > 1000 nM | 0.531 | 387 nM | 0.988 | > 10 µM | 0.988 | > 128 nM | 0.912 | > 20 µM | 0.885 | > 20 µM |
